# Measurements taken from PubChem BioAssay (NCATS).
# The shares of active, inactive and inconclusive entries below differ from those in the screen. For some assays here: No potency is given beside an inconclusive call; the fits are too rough. Activity calls are given as the source filed them. Calls follow the shape of the dose curve; as a rule, active = well fitted curve in the direction sought with a large enough effect; inconclusive = small, poorly fitted or top-dose-only effect, or another doubt; inactive = no such curve, though single readings can be large; an effect the other way counts as inactive or inconclusive.
# Experiments:
# [1] = target: Phospholipid hydroperoxide glutathione peroxidase GPX4 (Homo sapiens) (UniProt P36969); test: Primary qHTS Assay for Inhibitors of Recombinant Selenoprotein Glutathione Peroxidase 4 (GPX4) (AID 1845192); conditions: activity change, negative = inhibition: at 50 µM (top of the series) unless noted; also: nearly all actives have a fitted effect of over 65% in size; also: potency is read from the fitted curve at half-maximal effect
# Procedure, shortened: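 Steps: GPX4 plus compound, 30 min RT; add GR/GSH/NADPH master mix; start with cumene hydroperoxide; read 340/450 nm fluorescence at 0 and 15 min. Finals were 200 nM GPX4, 1 mM GSH, 0.5 mM CHP, 0.5 mM NADPH, 100 nM GR.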
# [2] = Primary fluorescence-based thiol-reactive (MSTI) qHTS assay for identification of artifact compounds. (AID 1845221);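 also: potency is read from the fitted curve at half-maximal effect; thiol-reactive compounds lower the probe fluorescence signal; nearly all actives have a fitted effect of over 65% in size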
# Procedure, shortened: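 MSTI probe at 4 uM final in 2% DMSO/PBS pH 7.4; compounds, 1 h at room temperature in dark. Fluorescence Ex/Em 525/598 nm, normalised to Acetyl-MSTI and MSTI, fitted to 4-parameter Hill.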
# HaCat = test: Cytotoxic Profiling of Annotated Libraries Using Quantitative High-Throughput Screening (AID 1296008); conditions: Five cell lines viability, CellTiter-Glo ATP luminescence, 48-72 h; max response: stronger effect = lower value; also: nearly all actives have a fitted effect of over 60% in size; also: potency is read from the fitted curve at half-maximal effect
# Procedure, shortened: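 Cells exposed to compounds for 48 or 72 hr at 37 degrees Celsius. Viability read as ATP-coupled luminescence with CellTiter-Glo after 10 min at room temperature.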
# SKOV3 = test: Primary qHTS to identify gynecologic anti-cancer compounds using libraries of approved drugs and bioactive compounds (AID 1345084); conditions: Gynecologic cancer cell panel viability, ATPlite luminescence, 48 h; series mostly up to 57.5 µM; also: potency is read from the fitted curve at half-maximal effect; nearly all actives have a fitted effect of over 55% in size
# Procedure, shortened: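 Cells, 1,000 per well, plated 16 h, then exposed 48 h at 37 C to compounds. Viability by ATPlite luminescence after 15 min at room temperature.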
# [3] = qHTS of pediatric cancer cell lines to identify multiple opportunities for drug repurposing: Primary screen for SK-N-MC cells (AID 1347093); conditions: SK-N-MC viability, CellTiter-Glo luminescence, 48 h; activity change, negative = cytotoxic: at 46 µM (top of the series)
# Procedure, shortened: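 Metabolically active cells were quantified by ATP-dependent luminescence (CellTiter-Glo, 15 min at room temperature) following 48 h treatment. Cells had been plated at 500-1,000 per well and settled for 5 h beforehand.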
# [4] = qHTS of pediatric cancer cell lines to identify multiple opportunities for drug repurposing: Primary screen for NB-EBc1 cells (AID 1347095)
# Procedure, shortened: (§1)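 Primary screen of approved and investigational compounds on cells in growth media at 37 degrees C, 5% CO2. MIPE set at 11-point and NPC set at 8-point dilutions; viability scored by ATP-based luminescence at 48 hours.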
# [5] = qHTS of pediatric cancer cell lines to identify multiple opportunities for drug repurposing: Primary screen for Saos-2 cells (AID 1347097); conditions: Saos-2 viability, CellTiter-Glo ATP luminescence, 48 h; activity change, negative = cytotoxic: at 46 µM (top of the series); also: nearly all actives have a fitted effect of over 40% in size
# Procedure, shortened: as §1
# [6] = Primary qHTS for inhibitors of nuclear receptor binding SET domain protein 2 (NSD2) in an isogenic RCH-ACV NSD2 p.E1099K mutant (9B) (AID 1645876); conditions: activity change, negative = viability loss: at 44.9 µM (top of the series) unless noted; also: nearly all actives have a fitted effect of over 70% in size
# [7] = Confirmatory screen GU Rhodamine qHTS for Zika virus inhibitors qHTS (AID 1347157); also: potency is read from the fitted curve at half-maximal effect; nearly all actives have a fitted effect of over 70% in size
# Procedure, shortened: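 Noncovalent NS2B hydrophilic domain/NS3 protease complex (25 nM final) in 10 mM Tris-HCl pH 8.0, 0.01% Tween 20, preincubated 15 min with compounds (up to 114 microM), then 1.5 microM Rhodamine110 substrate. Fluorescence change over 15 min fitted to 4-parameter Hill.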
# [8] = tested on: Zika virus NS2B-NS3 protease (unlinked complex); test: Primary screen GU Rhodamine qHTS for Zika virus inhibitors: Unlinked NS2B-NS3 protease assay (AID 1347159); conditions: Recombinant ZIKV NS2B-NS3 protease, Rhodamine110 substrate fluorescence; activity change, negative = inhibition: at 107 µM (top of the series); also: potency is read from the fitted curve at half-maximal effect; nearly all actives have a fitted effect of over 60% in size
# Procedure, shortened: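 Enzyme 25 nM in Tris-HCl pH 8.0 + 0.01% Tween 20; compounds up to 114 microM, 15 min RT dark; + Rhod110 substrate 1.5 microM; read t0 and 15 min; delta fluorescence → % inhibition → 4-parameter Hill fit.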
# [9] = Confirmatory screen NINDS Rhodamine qHTS for Zika virus inhibitors (AID 1347161); also: potency is read from the fitted curve at half-maximal effect; nearly all actives have a fitted effect of over 60% in size
# Procedure, shortened: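 Purified NS2B-NS3 protease with the NS2B hydrophilic domain joined by a flexible linker (25 nM) in 10 mM Tris-HCl pH 8.0, 0.01% Tween 20, preincubated 15 min at RT with compound; Rhodamine110 peptide substrate 1.5 µM; fluorescence change over 15 min; 4-parameter Hill fit.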
# [10] = Tertiary RLuc qRT-PCR qHTS assay for Zika virus inhibitors (AID 1347169); also: top concentration of the series differs between compounds; nearly all actives have a fitted effect of over 55% in size
# Procedure, shortened: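 Vero cells (1,000 per well) plated overnight at 37 degrees C, treated with compound in DMSO, then infected with recombinant ZIKV-RLuc (Cambodian) at MOI 1-2 for 48-72 hrs. Live-cell Renilla luciferase substrate added; luminescence read after 1-1.5 hrs.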
# [11] = target: Glutathione peroxidase 1 (Homo sapiens) (UniProt P07203); test: Primary qHTS Assay for Inhibitors of Recombinant Selenoprotein Glutathione Peroxidase 1 (GPX1) (AID 1845191); also: potency is read from the fitted curve at half-maximal effect; nearly all actives have a fitted effect of over 65% in size
# Procedure, shortened: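 GR-coupled readout: NADPH consumption tracked by fluorescence, ex 340/em 450 nm, at t=0 and after 15 min at RT. Final mix 10 nM GPX1, 1 mM GSH, 0.5 mM CHP, 0.5 mM NADPH, 100 nM GR, 0.01% BSA, following 30 min enzyme–compound preincubation.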
# Tags tell the direction and shape of the fitted curve.
# UniProt P36969, sequence (P36969 whole entry, looked up): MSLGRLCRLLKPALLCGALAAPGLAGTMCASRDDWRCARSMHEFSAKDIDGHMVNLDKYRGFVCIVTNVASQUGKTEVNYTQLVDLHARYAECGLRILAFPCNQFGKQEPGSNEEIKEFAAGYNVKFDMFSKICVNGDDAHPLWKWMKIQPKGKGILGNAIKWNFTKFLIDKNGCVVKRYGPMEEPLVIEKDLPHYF
# UniProt P07203, sequence (P07203 whole entry, looked up): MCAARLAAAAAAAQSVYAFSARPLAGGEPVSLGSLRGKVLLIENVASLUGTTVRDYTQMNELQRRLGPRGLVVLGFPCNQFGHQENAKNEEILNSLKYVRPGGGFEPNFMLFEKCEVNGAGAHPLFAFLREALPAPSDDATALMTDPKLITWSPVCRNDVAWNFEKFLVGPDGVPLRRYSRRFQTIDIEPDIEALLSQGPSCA
smiles,measurement,setting,value
C[C@]1(O)CC[C@@H]2C(C(=O)O)=CO[C@@H](O[C@@H]3O[C@H](CO)[C@@H](O)[C@H](O)[C@H]3O)[C@@H]21,Potency,[1],inactive
same,Potency,[2],"inconclusive [inhibitor, partial curve]"
same,outcome,HaCat,inactive
same,Potency,SKOV3,"inconclusive [rising, single point]"
CC(C)(C)NCC(O)COc1ccccc1OCC1CCCO1 (configuration not stated),Potency,[3],inactive
same,Potency,[4],inactive
same,Potency,[5],inactive
same,Potency,[6],inactive
same,Potency,HaCat,"inconclusive [inhibitor, single point]"
Cc1cc(=O)oc2c(C=O)c(O)ccc12,Potency,[7],"inconclusive [inhibitor, partial curve]"
same,Potency,[8],active: 79.4 µM
same,Potency,[9],"inconclusive [inhibitor, partial curve]"
same,Potency,[10],inactive
same,Potency,[11],"inconclusive [inhibitor, partial curve]"
same,Potency,[1],"inconclusive [inhibitor, single point]"
same,Potency,[2],"inconclusive [inhibitor, partial curve]"
same,Potency,HaCat,"inconclusive [inhibitor, single point]"
